{"source": "PubChem BioAssay AID1508623", "about": "(National Center for Advancing Translational Sciences (NCATS), 2021)", "note": "About 450 (0.94%) of roughly 48,000 compounds were called active. The shares of active, inactive and inconclusive entries below differ from those in the screen. Calls follow the shape of the dose curve; as a rule, active = well fitted inhibition curve with a large enough effect; inconclusive = small, poorly fitted or top-dose-only effect; inactive = no such curve, though single readings can be large or run the other way. A potency beside an inconclusive call is a rough fit, not a confirmed value. Potency is read from the fitted curve at half-maximal effect; tags tell the direction and shape of the fitted curve."}
{"experiment": "Primary qHTS for Identification of Small Molecule Inhibitors of Huntingtin Promoter Activity; also: nearly all actives have a fitted effect of over 50% in size", "settings": "HEK293 HTT promoter firefly luciferase reporter (activity 0% = vehicle and -100% = no light), 24 h; series mostly up to 57.5 µM", "outline": "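HEK293 luciferase promoter-reporter cells (2,500/well) plated 24 h, then compounds added at up to 57.5 uM final for 24 h at 37 °C. Firefly luminescence by Dual-Glo, normalized to vehicle (0%) and zero RLU (-100%).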"}
{"smiles": "COC(=O)c1c(NC(=O)C(C)Oc2ccc(Cl)cc2Cl)sc2c1CCCC2", "note": "(stereo not drawn)", "Potency": "inconclusive: 39.8 µM [inhibitor, partial curve, poor fit]"}
{"smiles": "Cc1ccc(Nc2nc(Nc3ccc(C)c(C)c3)nc(N3CCOCC3)n2)cc1C", "Potency": "inconclusive: 12.6 µM [inhibitor, partial curve, poor fit]"}
{"smiles": "CC(C=CC1=C(C)CCCC1(C)C)=CC=CC(C)=CC(=O)Nc1ccc(O)cc1", "Potency": "inconclusive: 49.8 µM [inhibitor, partial curve]"}
{"smiles": "COc1ccc(N2CCN(CCCNC(=O)c3cc(Nc4ccccc4OC)nc4ccccc34)CC2)cc1", "Potency": "inconclusive: 39.8 µM [inhibitor, single point]"}
{"smiles": "O=C(Cn1c(-c2cccs2)cc2ccccc21)NCc1ccccc1Br", "Potency": "inconclusive: 39.8 µM [inhibitor, partial curve, poor fit]"}
{"smiles": "CCc1cccc(C)c1NC(=O)CN1C(=O)C2(SCC(=O)N2c2cc(C)cc(C)c2)c2ccccc21", "note": "(stereo not drawn)", "Potency": "inconclusive: 22.4 µM [inhibitor, single point]"}
{"smiles": "Cc1ccccc1CNC(=O)c1sc2ncnc(N(C)C3CCCCC3)c2c1C", "Potency": "inconclusive: 39.8 µM [inhibitor, partial curve, poor fit]"}
{"smiles": "COc1cc(OC)cc(C(=O)Nc2cccc(-c3cn4cccnc4n3)c2)c1", "Potency": "inactive"}
{"smiles": "O=c1c2cc3c(nc2ncn1Cc1ccc(Cl)cc1)CCCC3", "Potency": "inactive"}
{"smiles": "CC1CCC2(CC1)N=C(c1ccccc1)C(=O)N2CC(=O)Nc1ccc(F)c(Cl)c1", "note": "(stereo not drawn)", "Potency": "inconclusive: 31.6 µM [inhibitor, partial curve, poor fit]"}
{"smiles": "COc1cccc(CNC(=O)COCc2cc(-c3ccc4c(c3)OCO4)on2)c1", "Potency": "inconclusive: 39.8 µM [inhibitor, single point]"}
{"smiles": "CCc1ccc(NC(=O)C2=CC(c3ccc4c(c3)OCO4)=NS(=O)(=O)N2C)cc1", "Potency": "inconclusive: 35.5 µM [inhibitor, partial curve, poor fit]"}
{"smiles": "CCn1c(CN2CCOCC2)nc2cc(NC(=O)c3ccc([N+](=O)[O-])cc3)ccc21", "Potency": "inconclusive: 11.2 µM [inhibitor, partial curve]"}
{"smiles": "CCc1ccc(Sc2cc(C(=O)NCCCOC(C)C)c3ccccc3n2)cc1", "Potency": "inconclusive: 39.8 µM [inhibitor, single point]"}
{"smiles": "COc1cc2c(Oc3ccc(NC(=O)C4(C(=O)Nc5ccc(F)cc5)CC4)cc3F)ccnc2cc1OCCCN1CCOCC1", "Potency": "inconclusive: 21.7 µM [inhibitor, partial curve]"}
{"smiles": "Cc1cc(C)cc(-n2ccnc2SCC(=O)Nc2ccc3c(c2)OCO3)c1", "Potency": "inconclusive: 39.8 µM [inhibitor, single point]"}
{"smiles": "COc1ccc(S(=O)(=O)NCc2ccc3c(c2)CCN3C(=O)c2ccc(C)cc2)cc1Cl", "Potency": "inconclusive: 31.6 µM [inhibitor, single point]"}
{"smiles": "Cc1nc2c(C(=O)NCCc3ccc(Cl)cc3)c[nH]n2c(=O)c1Cc1ccccc1F", "Potency": "inactive"}
{"smiles": "CCc1ccc(N2CCn3c2nc2c3c(=O)n(Cc3c(F)cccc3Cl)c(=O)n2C)cc1", "Potency": "inactive"}
{"smiles": "Cc1ccc2nc(NS(=O)(=O)c3ccc(Cl)cc3)c(Nc3ccc(C(=O)O)cc3)nc2c1", "Potency": "inactive"}
{"smiles": "CCc1ccc(NS(=O)(=O)c2ccc(C(=O)N(C)C)s2)cc1", "Potency": "inconclusive: 10 µM [inhibitor, partial curve]"}
{"smiles": "CCOc1ccc(/C=C(\\C#N)C(=O)Nc2sc3c(c2C(=O)OC)C(C(=O)OC)CC3)cc1OC", "note": "(stereo not drawn)", "Potency": "inactive"}
{"smiles": "Cc1ccc(CNC(=O)CN2C(=O)C3(SCC(=O)N3c3cc(C)cc(C)c3)c3ccccc32)cc1", "note": "(stereo not drawn)", "Potency": "inconclusive: 39.8 µM [inhibitor, single point]"}
{"smiles": "CCN(c1ccccc1)S(=O)(=O)c1ccc(F)c(C(=O)Nc2ccc(C)cc2)c1", "Potency": "inconclusive: 31.6 µM [inhibitor, single point]"}
{"smiles": "CCOc1ccc(Nc2oc(-c3ccc(COc4ccccc4C)o3)nc2C#N)cc1", "Potency": "inconclusive: 3.98 µM [inhibitor, full curve]"}
{"smiles": "CCOc1ccc(C(=O)Nc2ccc(S(=O)(=O)N3CCCCC3c3cccnc3)cc2)cc1", "note": "(stereo not drawn)", "Potency": "inconclusive: 17.8 µM [inhibitor, partial curve, poor fit]"}
{"smiles": "Cc1ccc(C)c(S(=O)(=O)NCC(c2ccco2)S(=O)(=O)c2ccc(F)cc2)c1", "note": "(stereo not drawn)", "Potency": "inconclusive: 15.8 µM [inhibitor, single point]"}
{"smiles": "Cc1noc(C)c1S(=O)(=O)N(CC(=O)NCc1ccccc1Cl)c1ccc(C(C)C)cc1", "Potency": "inconclusive: 39.8 µM [inhibitor, single point]"}
{"smiles": "Cc1ccc(N(CC(=O)N2CCN(c3ccc(Cl)cc3)CC2)S(=O)(=O)c2c(C)noc2C)cc1", "Potency": "inconclusive: 25.1 µM [inhibitor, partial curve]"}
{"smiles": "CCc1ccc(-n2nc(C)c3c(C(=O)NCCc4ccc(OC)c(OC)c4)cc(C)nc32)cc1", "Potency": "inconclusive: 22.4 µM [inhibitor, partial curve, poor fit]"}
{"smiles": "CCCNc1nc(NCc2ccccc2OC)c2cnn(C)c2n1", "Potency": "inconclusive: 22.4 µM [inhibitor, partial curve, poor fit]"}
{"smiles": "Nc1ncnc2ccccc12", "Potency": "inactive"}
{"smiles": "COc1ccccc1NC(=O)CN1C(=O)c2cccc3cccc1c23", "Potency": "inconclusive: 28.2 µM [inhibitor, partial curve, poor fit]"}
{"smiles": "Cc1ccc(Cl)cc1Nc1nn2c(=O)c3ccc(C(=O)NCc4cccs4)cc3nc2s1", "Potency": "inconclusive: 0.282 µM [inhibitor, full curve, poor fit]"}
{"smiles": "CCOc1ccccc1CNC(=O)c1cnc2sc(N3CCCC3)nn2c1=O", "Potency": "inactive"}
{"smiles": "CCC(CO)Nc1ncnc2c1cnn2-c1ccc(C)cc1", "note": "(stereo not drawn)", "Potency": "inconclusive: 39.8 µM [inhibitor, partial curve, poor fit]"}
{"smiles": "CCOCCCn1c(SCC(=O)Nc2cccc(OC)c2)nc2ccccc2c1=O", "Potency": "inconclusive: 20 µM [inhibitor, single point]"}
{"smiles": "Cn1cnc2c1c(=O)[nH]c(=O)n2C", "Potency": "inconclusive: 24.3 µM [inhibitor, partial curve, poor fit]"}
